The list shows a part of the results. Repeats are few or missing, and single values can be far off.
Key:
Assay in all cases: cell count relative to DMSO control; melanoma cells; higher = more viable cells
Settings in all cases: library dose: low library concentration; 72 h
[1] = test system: COLO792
[2] = test system: COLO800
[3] = test system: COLO829
[4] = test system: G361
[5] = test system: IPC-298
[6] = test system: IST-MEL1
[7] = test system: LOXIMVI
[8] = test system: MEL-HO
[9] = test system: LB2518-MEL
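Also: cell number obtained by counting DAPI-stained nuclei in high-throughput microscope images with image analysis software, screen run in 1,536-well plates.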

SMILES	cell count [1]	cell count [2]	cell count [3]	cell count [4]	cell count [5]	cell count [6]	cell count [7]	cell count [8]	cell count [9]
N#CC[C@H](C1CCCC1)n1cc(-c2ncnc3[nH]ccc23)cn1 [ruxolitinib] + CC1(C)NC(=O)N(c2ccc([N+](=O)[O-])c(C(F)(F)F)c2)C1=O [nilutamide] (first compound 1 µM, partner dose 1 µM)	108%	136%	141%	100%	98.6%	97.2%	47.9%	104%	–
N#CC[C@H](C1CCCC1)n1cc(-c2ncnc3[nH]ccc23)cn1 [ruxolitinib] + Cn1cncc1[C@@](N)(c1ccc(Cl)cc1)c1ccc2c(c1)c(-c1cccc(Cl)c1)cc(=O)n2C [tipifarnib] (first compound 1 µM, partner dose 0.01 µM)	93%	102%	103%	95%	104%	102%	155%	89.3%	86.3%
N#CC[C@H](C1CCCC1)n1cc(-c2ncnc3[nH]ccc23)cn1 [ruxolitinib] + C=CCn1c(=O)c2cnc(Nc3ccc(N4CCN(C)CC4)cc3)nc2n1-c1cccc(C(C)(C)O)n1 [MK1775] (first compound 1 µM, partner dose 0.02 µM)	103%	104%	101%	89.9%	92.6%	94.4%	121%	87.7%	–
N#CC[C@H](C1CCCC1)n1cc(-c2ncnc3[nH]ccc23)cn1 [ruxolitinib] + NC(=O)Nc1cc(-c2cccc(F)c2)sc1C(=O)N[C@H]1CCCNC1 [AZD7762] (first compound 1 µM, partner dose 0.02 µM)	99.5%	94.8%	102%	112%	–	112%	84.4%	97.5%	139%
N#CC[C@H](C1CCCC1)n1cc(-c2ncnc3[nH]ccc23)cn1 [ruxolitinib] + CCCCCCCCCCCC1=C(O)C(=O)C=C(O)C1=O [Embelin] (first compound 1 µM, partner dose 1.2 µM)	97.8%	241%	130%	106%	99.3%	90.3%	93.8%	101%	128%
N#CC[C@H](C1CCCC1)n1cc(-c2ncnc3[nH]ccc23)cn1 [ruxolitinib] + Cn1cc(/C=C2\C(=O)Nc3cccnc32)c2ccccc21 [GW441756] (first compound 1 µM, partner dose 0.4 µM)	116%	187%	112%	–	104%	89.2%	113%	87.3%	126%
N#CC[C@H](C1CCCC1)n1cc(-c2ncnc3[nH]ccc23)cn1 [ruxolitinib] + CC(C)CCN1c2nc(Nc3cc(F)c(O)c(F)c3)ncc2N(C)C(=O)C1C [BID1870] (first compound 1 µM, partner dose 0.2 µM)	107%	75.3%	115%	99.7%	91.8%	105%	92.1%	100%	135%
Cc1cc(Nc2cc(N3CCN(C)CC3)nc(Sc3ccc(NC(=O)C4CC4)cc3)n2)n[nH]1 [Tozasertib] + O=C(O)C(=O)Nc1sc2c(c1C(=O)O)CCNC2 [TCS401] (first compound 0.006 µM, partner dose 1.66667 µM)	87%	81.8%	99.5%	96.5%	101%	105%	93.6%	96.7%	79.2%
Cc1cc(Nc2cc(N3CCN(C)CC3)nc(Sc3ccc(NC(=O)C4CC4)cc3)n2)n[nH]1 [Tozasertib] + Cn1cc(/C=C2\C(=O)Nc3cccnc32)c2ccccc21 [GW441756] (first compound 0.006 µM, partner dose 0.4 µM)	105%	56.4%	107%	113%	91.8%	93.3%	96.2%	103%	94.9%
N#CC[C@H](C1CCCC1)n1cc(-c2ncnc3[nH]ccc23)cn1 [ruxolitinib] + COc1ccc(-c2ccc3c(N4CCOCC4)nc(N4C[C@@H](C)O[C@@H](C)C4)nc3n2)cc1CO [KU0063794] (first compound 1 µM, partner dose 0.02 µM)	–	98.9%	–	107%	93.4%	97.2%	76.6%	108%	113%
N#CC[C@H](C1CCCC1)n1cc(-c2ncnc3[nH]ccc23)cn1 [ruxolitinib] + CCc1ccc(CCOc2ccc(CC3SC(=O)NC3=O)cc2)nc1 [pioglitazone] (first compound 1 µM, partner dose 2 µM)	99.7%	180%	112%	92%	105%	97.5%	76.7%	105%	103%
CC[C@]1(O)C[C@H]2CN(CCc3c([nH]c4ccccc34)[C@@](C(=O)OC)(c3cc4c(cc3OC)N(C=O)[C@H]3[C@@](O)(C(=O)OC)[C@H](OC(C)=O)[C@]5(CC)C=CCN6CC[C@]43[C@@H]65)C2)C1 [vincristine] + CC(C)CCN1c2nc(Nc3cc(F)c(O)c(F)c3)ncc2N(C)C(=O)C1C [BID1870] (first compound 0.0001 µM, partner dose 0.2 µM)	91.5%	75.2%	83.1%	87.8%	93.3%	89.3%	156%	100%	90.6%
N#CC[C@H](C1CCCC1)n1cc(-c2ncnc3[nH]ccc23)cn1 [ruxolitinib] + N#Cc1c(O)c2c(-c3ccc(-c4ccccc4O)cc3)csc2[nH]c1=O [A769662] (first compound 1 µM, partner dose 2 µM)	–	216%	121%	105%	102%	104%	121%	102%	118%
Cc1cc(Nc2cc(N3CCN(C)CC3)nc(Sc3ccc(NC(=O)C4CC4)cc3)n2)n[nH]1 [Tozasertib] + Oc1nc(-c2ccc(C(F)(F)F)cc2)nc2c1CSCC2 [XAV939] (first compound 0.006 µM, partner dose 2 µM)	81.3%	54.1%	86.3%	62.2%	98.4%	99.5%	81.1%	100%	87.3%
N#CC[C@H](C1CCCC1)n1cc(-c2ncnc3[nH]ccc23)cn1 [ruxolitinib] + CCN(CC)CCCCNc1ncc2cc(-c3cc(OC)cc(OC)c3)c(NC(=O)NC(C)(C)C)nc2n1 [PD173074] (first compound 1 µM, partner dose 0.1 µM)	–	123%	83.8%	94%	107%	97.5%	141%	95.3%	–
Cc1cc(Nc2cc(N3CCN(C)CC3)nc(Sc3ccc(NC(=O)C4CC4)cc3)n2)n[nH]1 [Tozasertib] + Cc1cc([N+](=O)[O-])ccc1NS(=O)(=O)c1cc(Cl)ccc1Cl [FH535] (first compound 0.006 µM, partner dose 1 µM)	98%	66%	102%	106%	101%	84.6%	96.4%	97.3%	–
CC[C@]1(O)C[C@H]2CN(CCc3c([nH]c4ccccc34)[C@@](C(=O)OC)(c3cc4c(cc3OC)N(C=O)[C@H]3[C@@](O)(C(=O)OC)[C@H](OC(C)=O)[C@]5(CC)C=CCN6CC[C@]43[C@@H]65)C2)C1 [vincristine] + O=C1NC(=O)/C(=C/c2ccc(-c3ccc(F)cc3O)o2)S1 [AS252424] (first compound 0.0001 µM, partner dose 1 µM)	103%	134%	102%	102%	99.5%	99.8%	94.8%	120%	–
N#CC[C@H](C1CCCC1)n1cc(-c2ncnc3[nH]ccc23)cn1 [ruxolitinib] + c1cc(-c2cnn3cc(-c4ccc(OCCN5CCCCC5)cc4)cnc23)ccn1 [Dorsomorphin] (first compound 1 µM, partner dose 0.4 µM)	97.7%	170%	–	93.2%	96.3%	95.5%	121%	92.4%	–
CC[C@]1(O)C[C@H]2CN(CCc3c([nH]c4ccccc34)[C@@](C(=O)OC)(c3cc4c(cc3OC)N(C=O)[C@H]3[C@@](O)(C(=O)OC)[C@H](OC(C)=O)[C@]5(CC)C=CCN6CC[C@]43[C@@H]65)C2)C1 [vincristine] + COC(=O)c1sccc1S(=O)(=O)Nc1ccc(Nc2ccccc2)cc1OC [GSK0660] (first compound 0.0001 µM, partner dose 1 µM)	101%	119%	14.8%	98.5%	94%	101%	98.9%	91.4%	–
N#CC[C@H](C1CCCC1)n1cc(-c2ncnc3[nH]ccc23)cn1 [ruxolitinib] + OCCn1cc(-c2cnc3nnn(Cc4ccc5ncccc5c4)c3n2)cn1 [PF04217903] (first compound 1 µM, partner dose 1 µM)	94.1%	214%	114%	101%	100%	100%	139%	91.3%	–
CC[C@]1(O)C[C@H]2CN(CCc3c([nH]c4ccccc34)[C@@](C(=O)OC)(c3cc4c(cc3OC)N(C=O)[C@H]3[C@@](O)(C(=O)OC)[C@H](OC(C)=O)[C@]5(CC)C=CCN6CC[C@]43[C@@H]65)C2)C1 [vincristine] + COc1cc2c(Oc3ccc4[nH]c(C)cc4c3F)ncnc2cc1OCCCN1CCCC1 [cediranib] (first compound 0.0001 µM, partner dose 0.4 µM)	85%	64.4%	110%	109%	107%	111%	77.6%	106%	97.8%
CC[C@]1(O)C[C@H]2CN(CCc3c([nH]c4ccccc34)[C@@](C(=O)OC)(c3cc4c(cc3OC)N(C=O)[C@H]3[C@@](O)(C(=O)OC)[C@H](OC(C)=O)[C@]5(CC)C=CCN6CC[C@]43[C@@H]65)C2)C1 [vincristine] + CC1(C)NC(=O)N(c2ccc([N+](=O)[O-])c(C(F)(F)F)c2)C1=O [nilutamide] (first compound 0.0001 µM, partner dose 1 µM)	90.5%	97.1%	93.5%	91.2%	101%	96.7%	91.5%	99.5%	102%
